{"source": "paper PMC4336329", "about": "(PLoS ONE, 2015)", "note": "The whole screen tested about 310,000 compounds, of which about 14,000 (4.5%) showed an effect of 50% or more. Effects have a minus sign here. This is one part of the list.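 Also: peak tail current of the secondary pulse compared with the same well before compound.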"}
{"biological_target": "human ether-à-go-go-related gene (hERG) potassium channel (human, UniProt Q12809)", "sequence (Q12809 whole entry, looked up)": "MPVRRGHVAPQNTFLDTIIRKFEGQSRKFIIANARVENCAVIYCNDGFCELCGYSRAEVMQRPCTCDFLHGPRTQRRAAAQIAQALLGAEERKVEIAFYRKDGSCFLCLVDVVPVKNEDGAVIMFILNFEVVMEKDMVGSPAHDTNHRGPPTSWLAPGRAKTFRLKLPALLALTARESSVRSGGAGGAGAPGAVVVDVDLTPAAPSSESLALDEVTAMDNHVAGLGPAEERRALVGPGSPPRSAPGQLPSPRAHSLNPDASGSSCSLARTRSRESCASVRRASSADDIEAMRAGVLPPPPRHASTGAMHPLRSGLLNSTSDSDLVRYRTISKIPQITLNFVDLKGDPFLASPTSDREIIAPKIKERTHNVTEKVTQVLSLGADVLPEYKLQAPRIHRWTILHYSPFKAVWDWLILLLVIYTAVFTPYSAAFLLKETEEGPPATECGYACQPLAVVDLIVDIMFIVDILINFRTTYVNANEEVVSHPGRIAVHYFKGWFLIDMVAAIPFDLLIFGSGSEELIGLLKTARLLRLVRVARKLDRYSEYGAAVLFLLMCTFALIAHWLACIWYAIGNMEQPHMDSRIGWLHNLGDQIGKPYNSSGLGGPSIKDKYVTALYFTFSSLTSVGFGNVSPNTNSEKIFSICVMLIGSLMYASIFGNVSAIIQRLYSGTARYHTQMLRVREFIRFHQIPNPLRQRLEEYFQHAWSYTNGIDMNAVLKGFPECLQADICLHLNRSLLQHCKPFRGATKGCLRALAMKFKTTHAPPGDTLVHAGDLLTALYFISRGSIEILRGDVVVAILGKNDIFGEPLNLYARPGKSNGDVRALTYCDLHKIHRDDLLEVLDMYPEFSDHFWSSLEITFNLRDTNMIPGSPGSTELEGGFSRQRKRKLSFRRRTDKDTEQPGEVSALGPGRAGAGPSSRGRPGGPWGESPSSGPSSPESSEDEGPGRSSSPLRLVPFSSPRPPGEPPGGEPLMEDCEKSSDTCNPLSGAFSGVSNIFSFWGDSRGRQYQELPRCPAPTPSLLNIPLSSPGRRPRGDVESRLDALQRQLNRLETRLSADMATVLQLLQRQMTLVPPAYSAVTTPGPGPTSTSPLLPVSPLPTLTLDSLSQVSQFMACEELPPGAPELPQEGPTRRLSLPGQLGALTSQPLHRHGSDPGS", "experiment": "primary screen, population patch clamp on CHO cells stably expressing hERG", "units": {"hERG current change (%, negative = inhibition) at 10uM": "%"}}
{"compound": "O=C(CSc1nnnn1C1CCCCC1)NNC(=O)c1ccco1", "hERG current change (%, negative = inhibition) at 10uM": 11.3}
{"compound": "COc1cccc(OCCNC(=O)c2cc(OC)c(OC)c(OC)c2)c1", "hERG current change (%, negative = inhibition) at 10uM": 19}
{"compound": "COc1ccc(C(OC(=O)c2ccco2)C(=O)NC2CCCC2)cc1", "note": "(stereo not shown)", "hERG current change (%, negative = inhibition) at 10uM": 25.1}
{"compound": "CSc1sc(C(=O)N2CCc3ccccc32)cc1S(=O)(=O)C(C)C", "hERG current change (%, negative = inhibition) at 10uM": 14.2}
{"compound": "CS(=O)(=O)c1ccccc1C(=O)Nc1cc2c(cc1C(=O)O)OCCCO2", "hERG current change (%, negative = inhibition) at 10uM": -57.3}
{"compound": "Cc1ccc(-n2nc3c([n+]2[O-])CCc2c-3no[n+]2[O-])cc1", "hERG current change (%, negative = inhibition) at 10uM": 14.3}
{"compound": "O=C(NCc1ccc(N2CCCC2=O)cc1)c1cccc(Cl)c1", "hERG current change (%, negative = inhibition) at 10uM": 1.27}
{"compound": "Cc1ccc(S(=O)(=O)N2CCSC2)cc1C", "hERG current change (%, negative = inhibition) at 10uM": 1.01}
{"compound": "O=C(CCN1C(=O)C2CC=C(Cl)CC2C1=O)NC1CCCCC1", "note": "(stereo not shown)", "hERG current change (%, negative = inhibition) at 10uM": 1.35}
{"compound": "CC1=C(C(=O)OC(C)C)C(c2ccco2)NC(=O)N1", "note": "(stereo not shown)", "hERG current change (%, negative = inhibition) at 10uM": 8.67}
{"compound": "COc1cc(/C=C/C(=O)O)cc(S(=O)(=O)Nc2ccc3nc(SC)sc3c2)c1OC", "hERG current change (%, negative = inhibition) at 10uM": 11.3}
{"compound": "Cc1ccc2cc(C#N)c(SCC(=O)NCC3CCCO3)nc2c1", "note": "(stereo not shown)", "hERG current change (%, negative = inhibition) at 10uM": 12.3}
{"compound": "C=CCn1cc(C(=O)NCCCOCC)c(=O)c2cc(S(=O)(=O)N(CC)CC)ccc21", "hERG current change (%, negative = inhibition) at 10uM": -33.3}
{"compound": "CC(C)(C)S(=O)(=O)c1cnc(-c2cnccn2)nc1N", "hERG current change (%, negative = inhibition) at 10uM": 9.53}
{"compound": "O=C(O)c1ccc(NCc2nc3ccccc3n2CCOc2ccccc2Cl)cc1", "hERG current change (%, negative = inhibition) at 10uM": 14.1}
{"compound": "O=C(CN1C(=O)COc2ccccc21)c1cccc(Cl)c1", "hERG current change (%, negative = inhibition) at 10uM": -14.4}
{"compound": "CCOc1cc(/C=N/NC(=O)c2nn(C)cc2Br)ccc1OCc1ccccc1", "hERG current change (%, negative = inhibition) at 10uM": 5.59}
{"compound": "O=C1NC(=O)N(c2ccc3c(c2)OCO3)C(=O)/C1=C/c1ccsc1", "hERG current change (%, negative = inhibition) at 10uM": -2.91}
{"compound": "O=C(O)c1[nH]c2ccccc2c1C=NCc1ccccc1Cl", "hERG current change (%, negative = inhibition) at 10uM": 19.8}
{"compound": "CC(C)(C)OC(=O)[C@H](Cc1ccccc1)NC(=O)c1nc[nH]c1C(=O)N1CCc2ccccc2C1", "hERG current change (%, negative = inhibition) at 10uM": -19.7}
{"compound": "COc1ccc(-c2cn(Cc3ccc(C(N)=O)cc3)c(-c3ccc(Cl)nc3)n2)cc1", "hERG current change (%, negative = inhibition) at 10uM": -71.4}
{"compound": "C/C(=N/O)c1ccc2c(c1)OCCOCCOc1cc(/C(C)=N/O)ccc1OCCOCCO2", "hERG current change (%, negative = inhibition) at 10uM": -77.3}
{"compound": "Cc1ccc2ccc(S(=O)(=O)NCc3ccccn3)cc2c1", "hERG current change (%, negative = inhibition) at 10uM": 8.22}
{"compound": "CCOc1ccc(S(=O)(=O)NC(C)C(=O)NCc2ccc3c(c2)OCO3)cc1", "note": "(stereo not shown)", "hERG current change (%, negative = inhibition) at 10uM": 2.83}
{"compound": "CNC(=O)c1cc(Nc2nnc(C)c3ccccc23)ccc1OC", "hERG current change (%, negative = inhibition) at 10uM": 1.5}
{"compound": "CC(=O)NC(CC(=O)O)c1ccc([N+](=O)[O-])cc1", "note": "(stereo not shown)", "hERG current change (%, negative = inhibition) at 10uM": 10.6}
{"compound": "COC(=O)c1ccc(OC(=O)c2ccco2)cc1", "hERG current change (%, negative = inhibition) at 10uM": -5.08}
{"compound": "Cc1ccc(-c2cc(C(F)(F)F)c(C#N)c(SCC(=O)O)n2)cc1", "hERG current change (%, negative = inhibition) at 10uM": 20.9}
{"compound": "CN(C)C(CNc1ncnc2sc3c(c12)CCCCC3)c1ccco1", "note": "(stereo not shown)", "hERG current change (%, negative = inhibition) at 10uM": -35.4}
{"compound": "COc1ccc(S(=O)(=O)N2CCOCC2)cc1NC(=O)c1ccc2c(c1)OCCO2", "hERG current change (%, negative = inhibition) at 10uM": 0.85}
{"compound": "CCn1c(=O)c(C(=O)NCCc2ccccc2)c(O)c2ccccc21", "hERG current change (%, negative = inhibition) at 10uM": 19.7}
{"compound": "CC(=O)c1ccc(OCCCC(=O)NNC(=O)c2ccccn2)cc1", "hERG current change (%, negative = inhibition) at 10uM": -6.17}
{"compound": "COc1ccc2c(C(=O)CN3CCSCC3)c[nH]c2c1", "hERG current change (%, negative = inhibition) at 10uM": -4.01}
{"compound": "S=C(NCc1cccnc1)NCc1cccnc1", "hERG current change (%, negative = inhibition) at 10uM": 14.4}
{"compound": "COC(=O)c1c(/N=C/N(C)C)sc2c1CCN(c1ncc(C(F)(F)F)cc1Cl)C2", "hERG current change (%, negative = inhibition) at 10uM": -14.3}
{"compound": "Cc1ccccc1N1C(=O)CC(=O)NC1=O", "hERG current change (%, negative = inhibition) at 10uM": 5.21}
{"compound": "CCn1c(SCC(=O)Nc2c(C#N)cnn2-c2ccccc2)nnc1-c1cccs1", "hERG current change (%, negative = inhibition) at 10uM": -13.6}
{"compound": "CC(=O)C1=C(O)C(=O)N(CCC(=O)O)C1c1ccccc1[N+](=O)[O-]", "note": "(stereo not shown)", "hERG current change (%, negative = inhibition) at 10uM": 11.5}
{"compound": "CCCCc1c(O)nc2n(c1=O)CCS2", "hERG current change (%, negative = inhibition) at 10uM": 11.8}
{"compound": "CN1CCn2c1nc(N1CCCCC1)nc2=O", "hERG current change (%, negative = inhibition) at 10uM": -11.9}
{"compound": "O=C1c2ccccc2NC(c2cccc(O)c2)N1NS(=O)(=O)c1ccccc1", "note": "(stereo not shown)", "hERG current change (%, negative = inhibition) at 10uM": 0.888}
{"compound": "CCCCNC(=O)CCCN1C(=O)c2cccnc2Sc2ccccc21", "hERG current change (%, negative = inhibition) at 10uM": 9.61}
{"compound": "CCOc1ccc(NC(=O)CSc2nccn(-c3ccc4c(c3)OCCO4)c2=O)cc1", "hERG current change (%, negative = inhibition) at 10uM": -12.4}
{"compound": "[S-]c1nnc(-c2ccc(Br)cc2)n1-c1ccccc1.[Zn+2]", "hERG current change (%, negative = inhibition) at 10uM": 18.9}
{"compound": "CCCCOc1cc(C(=O)OCCN(CC)CC)ccc1N", "hERG current change (%, negative = inhibition) at 10uM": -60.6}
{"compound": "N#C[C@H]1C2OC2c2ccccc2N1C(=O)c1ccccc1", "note": "(stereo partly shown)", "hERG current change (%, negative = inhibition) at 10uM": -0.165}
{"compound": "CCOC(=O)c1cn(CC(=O)Nc2cccc(Cl)c2C)nn1", "hERG current change (%, negative = inhibition) at 10uM": 19.8}
{"compound": "Cc1onc(-c2ccccc2Cl)c1C(=O)Nc1ccc(S(=O)(=O)N2CCCC2)cc1", "hERG current change (%, negative = inhibition) at 10uM": 19.3}
{"compound": "COc1cccc(/C=C2\\Oc3ccc(O)cc3C2=O)c1O", "hERG current change (%, negative = inhibition) at 10uM": 14.1}
{"compound": "Cc1ccc(CN2CCSc3ccc(C(=O)NCCCN4CCOCC4)cc32)cc1", "hERG current change (%, negative = inhibition) at 10uM": -37.8}
{"compound": "CCOc1ccc(CN2C(=O)c3ccccc3Sc3ccc(C(=O)NCCCN4CCOCC4)cc32)cc1", "hERG current change (%, negative = inhibition) at 10uM": -22.5}
{"compound": "Cc1ccc(S(=O)(=O)NC(=O)NCc2ccc(F)cc2)cc1", "hERG current change (%, negative = inhibition) at 10uM": 13}
{"compound": "CCOc1cc(CNCCO)cc(Br)c1OCc1ccc(Cl)cc1Cl.Cl", "hERG current change (%, negative = inhibition) at 10uM": 2.86}
{"compound": "COC(=O)c1nn(-c2ccc(OC)cc2)c(=O)cc1NN", "hERG current change (%, negative = inhibition) at 10uM": 26.7}
{"compound": "CC1C/C(=N\\NC(=O)c2cccnc2)CC(C)(C)C1", "note": "(stereo not shown)", "hERG current change (%, negative = inhibition) at 10uM": 9.65}
{"compound": "COCC(=O)Nc1ccc2c(c1)OCO2", "hERG current change (%, negative = inhibition) at 10uM": 18.3}
{"compound": "O=C(Nc1ccccc1N1CCOCC1)c1ccc([N+](=O)[O-])o1", "hERG current change (%, negative = inhibition) at 10uM": -17.9}
{"compound": "CC(Sc1ncnc2sccc12)C(=O)Nc1ccc(C(N)=O)cc1", "note": "(stereo not shown)", "hERG current change (%, negative = inhibition) at 10uM": 25.8}
